In all, about 81,000 sequences were measured (“one-hybrid fitness for binding NBS DNA”: median about -0.1, highest 2% from about 0.36 on). The list shows a part of the results. Bounds are passed on as bounds.

B1: Caulobacter ParB omega fusion; a variant is named by its letters at X, in order, B8GW30 (parent)
chain: MESVVVGEPGMSEGRRGLGRGLSALLGEVDAAPAQAPGEQLGGSREAPIEILQRNPDQPRRTFREEDLEDLSNSIREKGVLQPILVRPSPDTAGEYQIVAGERAWRAAQRAGLKTVPIMVRELDDLAVLEIGIIENVQRADLNVLEEALSYKVLMEKFERTQENIAQTIGKSXSHVANXMRLLXLPDEVQSYLVSGELTAXHARAIAAAADPVALAKQIIEGGLSVRETEALARKAPNLSAGKSKGGRPPRVKDTDTQALESDLSSVLGLDVSIDHRGSTGTLTITYATLEQLDDLCNRLTRGI

Variants of B1 are the subject of the assay. As to the kind of experiment: one-hybrid fitness for binding NBS DNA (the Noc-binding site; scaled: cognate 1, non-cognate 0); higher = stronger binding. The settings on record: with NBS DNA site. The essentials: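 The reporter was HIS3, with the binding site 19 bp from the promoter, in E. coli USO used for bacterial one-hybrid selection of Caulobacter ParB libraries with four specificity codons randomised. Growth was on M9 lacking histidine, with 0.1 mM IPTG and 5 mM 3-AT, for 48 hours at 37°C. Illumina sequencing covered plasmids before and after selection; three replicate libraries were pooled and variants with under 10 reads dropped. A fitness score is the log change in variant-to-wild-type read ratio, rescaled to the cognate and non-cognate references.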
With PRWD, the “one-hybrid fitness for binding NBS DNA” value was not above 0.2.

On to ESFT, for which the “one-hybrid fitness for binding NBS DNA” value was not above 0.2.

As for IRIR, the “one-hybrid fitness for binding NBS DNA” value is not above 0.2.

Turning to FLVL, the “one-hybrid fitness for binding NBS DNA” value was not above 0.2.

Regarding CSMG, the “one-hybrid fitness for binding NBS DNA” value is not above 0.2.

As for GLEV, the “one-hybrid fitness for binding NBS DNA” value is not above 0.2.

Consider TNHC, for which the “one-hybrid fitness for binding NBS DNA” value is not above 0.2.

For TAGS, the “one-hybrid fitness for binding NBS DNA” value is not above 0.2.

As for TRLG, the “one-hybrid fitness for binding NBS DNA” value is not above 0.2.

For the variant ICAT, the “one-hybrid fitness for binding NBS DNA” value is not above 0.2.

For the variant SGAD, the “one-hybrid fitness for binding NBS DNA” value was not above 0.2.

As to GKSS, the “one-hybrid fitness for binding NBS DNA” value is not above 0.2.

On to RQEL, for which the “one-hybrid fitness for binding NBS DNA” value is not above 0.2.

For VHRV, the “one-hybrid fitness for binding NBS DNA” value was not above 0.2.

With HSRL, the “one-hybrid fitness for binding NBS DNA” value is not above 0.2.

As to NNTH, the “one-hybrid fitness for binding NBS DNA” value is not above 0.2.

As to AKAG, the “one-hybrid fitness for binding NBS DNA” value was not above 0.2.

On to EGFR, for which the “one-hybrid fitness for binding NBS DNA” value was not above 0.2.

Regarding CAQS, the “one-hybrid fitness for binding NBS DNA” value is not above 0.2.

On to IGRG, for which the “one-hybrid fitness for binding NBS DNA” value was not above 0.2.

Regarding VSFS, the “one-hybrid fitness for binding NBS DNA” value is not above 0.2.

Take LELV: the “one-hybrid fitness for binding NBS DNA” value is not above 0.2.

On to NNYT, for which the “one-hybrid fitness for binding NBS DNA” value is not above 0.2.

As to QKVM, the “one-hybrid fitness for binding NBS DNA” value stood at 0.273.

MRWS: the “one-hybrid fitness for binding NBS DNA” value was not above 0.2.

Regarding MSLG, the “one-hybrid fitness for binding NBS DNA” value is not above 0.2.

On to RMAG, for which the “one-hybrid fitness for binding NBS DNA” value was not above 0.2.

Regarding FVNL, the “one-hybrid fitness for binding NBS DNA” value is not above 0.2.

In the case of QRTN, the “one-hybrid fitness for binding NBS DNA” value amounted to 0.429.

Take RRRH: the “one-hybrid fitness for binding NBS DNA” value was found to be 0.808.

Consider PTSQ, for which the “one-hybrid fitness for binding NBS DNA” value is not above 0.2.

As to RDEV, the “one-hybrid fitness for binding NBS DNA” value is not above 0.2.

As for YGYL, the “one-hybrid fitness for binding NBS DNA” value was not above 0.2.

Take QQSH: the “one-hybrid fitness for binding NBS DNA” value was 0.208.

Take DTPA: the “one-hybrid fitness for binding NBS DNA” value was not above 0.2.

For NTDY, the “one-hybrid fitness for binding NBS DNA” value was not above 0.2.

For the variant FRDI, the “one-hybrid fitness for binding NBS DNA” value was not above 0.2.

For the variant KQQV, the “one-hybrid fitness for binding NBS DNA” value was not above 0.2.

Take LGLT: the “one-hybrid fitness for binding NBS DNA” value was not above 0.2.

As to LPWG, the “one-hybrid fitness for binding NBS DNA” value was not above 0.2.

Consider DINW, for which the “one-hybrid fitness for binding NBS DNA” value is not above 0.2.

With SRYG, the “one-hybrid fitness for binding NBS DNA” value was not above 0.2.

With LHAV, the “one-hybrid fitness for binding NBS DNA” value was not above 0.2.

Turning to HYCG, the “one-hybrid fitness for binding NBS DNA” value was not above 0.2.

As for EKGS, the “one-hybrid fitness for binding NBS DNA” value is not above 0.2.

Turning to CPCR, the “one-hybrid fitness for binding NBS DNA” value was not above 0.2.

With PAKW, the “one-hybrid fitness for binding NBS DNA” value was not above 0.2.

YKAA: the “one-hybrid fitness for binding NBS DNA” value was not above 0.2.

With QISY, the “one-hybrid fitness for binding NBS DNA” value is not above 0.2.

As to QCSN, the “one-hybrid fitness for binding NBS DNA” value was not above 0.2.

In the case of PQTP, the “one-hybrid fitness for binding NBS DNA” value was not above 0.2.

On to GQTS, for which the “one-hybrid fitness for binding NBS DNA” value is not above 0.2.

Turning to NWSC, the “one-hybrid fitness for binding NBS DNA” value was not above 0.2.

On to SSPV, for which the “one-hybrid fitness for binding NBS DNA” value is not above 0.2.

For RYKP, the “one-hybrid fitness for binding NBS DNA” value is not above 0.2.

GLSR: the “one-hybrid fitness for binding NBS DNA” value was not above 0.2.

Turning to PIAQ, the “one-hybrid fitness for binding NBS DNA” value is not above 0.2.

NSCR: the “one-hybrid fitness for binding NBS DNA” value is not above 0.2.

For the variant LHRL, the “one-hybrid fitness for binding NBS DNA” value is not above 0.2.

Regarding QAEI, the “one-hybrid fitness for binding NBS DNA” value was not above 0.2.

Regarding EFPY, the “one-hybrid fitness for binding NBS DNA” value is not above 0.2.

Take WERL: the “one-hybrid fitness for binding NBS DNA” value is not above 0.2.

With QTGE, the “one-hybrid fitness for binding NBS DNA” value was not above 0.2.

As for KLYW, the “one-hybrid fitness for binding NBS DNA” value is not above 0.2.

On to IWKR, for which the “one-hybrid fitness for binding NBS DNA” value is not above 0.2.

For the variant NYSQ, the “one-hybrid fitness for binding NBS DNA” value was not above 0.2.

For GPMW, the “one-hybrid fitness for binding NBS DNA” value was not above 0.2.

For WFAY, the “one-hybrid fitness for binding NBS DNA” value is not above 0.2.

For TAPG, the “one-hybrid fitness for binding NBS DNA” value is not above 0.2.

In the case of SFAC, the “one-hybrid fitness for binding NBS DNA” value is not above 0.2.

For the variant QFAW, the “one-hybrid fitness for binding NBS DNA” value is not above 0.2.

On to SEMT, for which the “one-hybrid fitness for binding NBS DNA” value is not above 0.2.

In the case of HCHT, the “one-hybrid fitness for binding NBS DNA” value was not above 0.2.

Consider PVNF, for which the “one-hybrid fitness for binding NBS DNA” value was not above 0.2.

Take IIRR: the “one-hybrid fitness for binding NBS DNA” value was not above 0.2.

In the case of QVDY, the “one-hybrid fitness for binding NBS DNA” value is not above 0.2.

Regarding HTSW, the “one-hybrid fitness for binding NBS DNA” value was not above 0.2.

Values taken from a collection of fitness landscapes (doi:10.1016/j.celrep.2020.107928).
